This is an account of results in publication PMC3196593 (Journal of medicinal chemistry, 2011).

Experiment [1] concerns collagen induced arthritis (CIA) model of RA. The conditions noted are these: cited from earlier work.
Experiment [2] relates to dextran sodium sulphate (DSS) model of Ulcerative Colitis. The following applies: cited from earlier work.
Experiment [3] has as its system Neutrophil Extracellular Traps (NETs). The conditions noted are these: cited from earlier work.
The target in the next experiment is PAD4 (Homo sapiens, UniProt Q9UM07). Put plainly: PAD4 IC50 assay. Format: biochemical.
The subject of experiment [4] is histone H3 citrullination in HL60 granulocytes. Put plainly: Histone deimination in HL60 granulocytes. The conditions noted are these: calcium ionophore A23187, 30 min incubation with inhibitor.
A further experiment deals with HL-60 cells. Nature of the experiment: Cytotoxicity in combination with doxorubicin. Format: cell-based, human. The following applies: doxorubicin alone; cell viability at the maximum agent concentration tested.

Sequence of PAD4 (Q9UM07 whole entry): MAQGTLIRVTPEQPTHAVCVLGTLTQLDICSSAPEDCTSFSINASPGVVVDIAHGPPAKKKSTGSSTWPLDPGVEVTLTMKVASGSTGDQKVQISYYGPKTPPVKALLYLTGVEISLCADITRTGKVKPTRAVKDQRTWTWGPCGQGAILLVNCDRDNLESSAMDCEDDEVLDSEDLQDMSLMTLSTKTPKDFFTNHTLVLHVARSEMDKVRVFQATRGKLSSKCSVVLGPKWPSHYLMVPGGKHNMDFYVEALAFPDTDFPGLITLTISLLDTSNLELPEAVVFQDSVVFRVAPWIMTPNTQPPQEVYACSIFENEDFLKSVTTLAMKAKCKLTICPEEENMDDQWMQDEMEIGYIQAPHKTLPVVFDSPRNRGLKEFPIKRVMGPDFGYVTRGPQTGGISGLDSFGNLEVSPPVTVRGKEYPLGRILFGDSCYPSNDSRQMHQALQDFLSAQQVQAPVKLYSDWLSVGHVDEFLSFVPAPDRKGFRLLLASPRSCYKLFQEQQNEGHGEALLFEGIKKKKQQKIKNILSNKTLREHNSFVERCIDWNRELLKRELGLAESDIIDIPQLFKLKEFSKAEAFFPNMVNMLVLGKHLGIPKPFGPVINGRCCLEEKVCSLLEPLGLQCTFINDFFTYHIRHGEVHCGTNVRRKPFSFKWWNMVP

As for `N=C(CCl)NCCC[C@H](NC(=O)c1ccccc1)C(N)=O.O=C(O)C(F)(F)F` [Compound 1, Cl-amidine], the disease severity result in experiment [1] and in experiment [2] was “decreases disease severity” each time. Besides, the NET formation entry in experiment [3] is given as “prevents NET formation”.

For the compound `N=C(CF)NCCC[C@H](NC(=O)c1c[nH]cn1)C(N)=O.O=C(O)C(F)(F)F` [Compound 14, N^1-(4-carbonyl)imidazole-N^5-(2-fluoro-1-iminoethyl)-L-ornithine amide●TFA], on PAD4, the “decrease in potency relative to F-amidine” value came out at 10 fold.

As for `N=C(CF)NCCC[C@H](NC(=O)c1ccccc1C(=O)O)C(N)=O.O=C(O)C(F)(F)F` [Compound 17, N-α-(2-carboxyl)benzoyl-N^5-(2-fluoro-1-iminoethyl)-L-ornithine amide], in experiment [4], the “levels of deiminated histone H3” value was “decreased”.

With `COc1cccc2c1C(=O)c1c(O)c3c(c(O)c1C2=O)C[C@@](O)(C(=O)CO)C[C@@H]3O[C@H]1C[C@H](N)[C@H](O)[C@H](C)O1` [Doxorubicin], in the experiment on HL-60 cells, the “% Survival” value was 12.0 ± 4.4%.
